Results on 5 molecules are retold here after paper PMC5715026.

Sequences of proteins named here, by UniProt entry; tags and fusion partners are left off.
UniProt O95235: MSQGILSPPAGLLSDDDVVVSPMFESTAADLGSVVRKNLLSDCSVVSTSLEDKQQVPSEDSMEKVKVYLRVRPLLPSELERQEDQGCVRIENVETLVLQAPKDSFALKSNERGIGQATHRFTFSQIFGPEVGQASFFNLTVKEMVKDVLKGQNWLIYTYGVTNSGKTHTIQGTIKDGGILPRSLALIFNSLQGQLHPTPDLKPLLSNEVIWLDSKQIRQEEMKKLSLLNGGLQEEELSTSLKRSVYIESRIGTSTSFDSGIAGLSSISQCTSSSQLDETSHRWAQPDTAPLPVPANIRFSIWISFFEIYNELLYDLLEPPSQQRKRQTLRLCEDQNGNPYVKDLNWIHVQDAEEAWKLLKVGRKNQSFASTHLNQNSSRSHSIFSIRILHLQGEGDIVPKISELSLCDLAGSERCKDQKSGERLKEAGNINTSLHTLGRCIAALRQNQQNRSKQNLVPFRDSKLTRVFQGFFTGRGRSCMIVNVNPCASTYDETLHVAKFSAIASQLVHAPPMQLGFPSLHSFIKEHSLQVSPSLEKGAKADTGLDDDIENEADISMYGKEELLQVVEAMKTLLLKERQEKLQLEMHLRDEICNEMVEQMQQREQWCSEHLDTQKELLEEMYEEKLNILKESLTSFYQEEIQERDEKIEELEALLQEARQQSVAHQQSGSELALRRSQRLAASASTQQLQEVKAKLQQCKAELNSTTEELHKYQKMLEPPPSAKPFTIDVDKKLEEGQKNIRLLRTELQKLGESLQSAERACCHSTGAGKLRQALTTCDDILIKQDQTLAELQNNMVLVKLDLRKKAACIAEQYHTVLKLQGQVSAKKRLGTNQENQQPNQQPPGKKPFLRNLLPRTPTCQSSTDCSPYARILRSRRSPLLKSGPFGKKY
UniProt Q96GD4: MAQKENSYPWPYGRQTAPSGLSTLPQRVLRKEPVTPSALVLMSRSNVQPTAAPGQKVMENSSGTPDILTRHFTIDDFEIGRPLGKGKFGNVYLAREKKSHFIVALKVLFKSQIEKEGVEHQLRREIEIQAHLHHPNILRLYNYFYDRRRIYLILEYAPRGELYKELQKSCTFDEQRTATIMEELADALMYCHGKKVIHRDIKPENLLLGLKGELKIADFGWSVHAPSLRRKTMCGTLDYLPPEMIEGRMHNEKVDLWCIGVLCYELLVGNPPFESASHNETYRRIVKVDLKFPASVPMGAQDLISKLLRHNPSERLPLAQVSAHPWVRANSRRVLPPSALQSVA
UniProt E9PY46: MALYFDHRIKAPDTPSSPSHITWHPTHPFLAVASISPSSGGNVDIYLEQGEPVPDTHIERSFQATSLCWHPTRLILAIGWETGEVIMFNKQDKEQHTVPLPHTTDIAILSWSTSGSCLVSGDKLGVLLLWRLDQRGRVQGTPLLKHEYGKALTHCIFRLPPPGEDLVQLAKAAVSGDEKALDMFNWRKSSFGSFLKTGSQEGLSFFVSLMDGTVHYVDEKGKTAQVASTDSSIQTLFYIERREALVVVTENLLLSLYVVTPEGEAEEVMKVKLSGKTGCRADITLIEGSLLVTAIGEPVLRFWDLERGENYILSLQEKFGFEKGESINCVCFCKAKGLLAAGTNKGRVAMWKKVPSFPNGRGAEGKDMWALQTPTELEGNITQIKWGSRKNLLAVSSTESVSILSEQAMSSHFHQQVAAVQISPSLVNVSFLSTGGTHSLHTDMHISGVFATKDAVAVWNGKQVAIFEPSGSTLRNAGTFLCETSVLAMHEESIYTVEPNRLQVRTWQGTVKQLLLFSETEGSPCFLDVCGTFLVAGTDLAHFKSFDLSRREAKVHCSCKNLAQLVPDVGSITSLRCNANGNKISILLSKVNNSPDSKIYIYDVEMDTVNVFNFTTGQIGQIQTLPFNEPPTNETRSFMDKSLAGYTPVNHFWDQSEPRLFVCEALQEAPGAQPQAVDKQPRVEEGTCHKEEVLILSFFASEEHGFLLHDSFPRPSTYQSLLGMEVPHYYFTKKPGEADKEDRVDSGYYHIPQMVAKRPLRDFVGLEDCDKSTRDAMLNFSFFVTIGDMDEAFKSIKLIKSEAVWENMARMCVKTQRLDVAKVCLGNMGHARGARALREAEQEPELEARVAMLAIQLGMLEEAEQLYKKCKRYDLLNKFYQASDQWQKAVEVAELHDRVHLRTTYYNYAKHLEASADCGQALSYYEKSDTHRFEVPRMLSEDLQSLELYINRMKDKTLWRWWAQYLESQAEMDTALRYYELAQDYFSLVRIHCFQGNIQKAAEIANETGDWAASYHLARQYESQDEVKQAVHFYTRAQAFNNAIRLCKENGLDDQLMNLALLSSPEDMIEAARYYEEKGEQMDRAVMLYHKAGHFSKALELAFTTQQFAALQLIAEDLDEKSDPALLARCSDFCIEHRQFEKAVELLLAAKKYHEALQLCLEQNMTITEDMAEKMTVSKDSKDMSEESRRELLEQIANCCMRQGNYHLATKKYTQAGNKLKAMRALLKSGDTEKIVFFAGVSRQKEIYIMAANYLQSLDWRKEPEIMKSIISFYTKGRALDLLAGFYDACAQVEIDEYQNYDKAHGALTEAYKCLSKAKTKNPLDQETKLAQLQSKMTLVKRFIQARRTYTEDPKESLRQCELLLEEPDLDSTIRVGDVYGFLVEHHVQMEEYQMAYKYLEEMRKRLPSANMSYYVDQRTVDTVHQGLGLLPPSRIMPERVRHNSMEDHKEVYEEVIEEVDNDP

The target in test [1] is GFP-MKLP2 (HeLa Kyoto BAC line, under its endogenous promotor) (UniProt O95235). Description: co-IP; GFP-Trap A immunoprecipitation, 2 h at 4 °C, mitotic HeLa Kyoto BAC line expressing GFP-MKLP2; western blot.
Test [2] has as its target T1, FLAG-tagged IFT52 (stably expressed in IMCD cells) (UniProt Q62559).
T1 sequence: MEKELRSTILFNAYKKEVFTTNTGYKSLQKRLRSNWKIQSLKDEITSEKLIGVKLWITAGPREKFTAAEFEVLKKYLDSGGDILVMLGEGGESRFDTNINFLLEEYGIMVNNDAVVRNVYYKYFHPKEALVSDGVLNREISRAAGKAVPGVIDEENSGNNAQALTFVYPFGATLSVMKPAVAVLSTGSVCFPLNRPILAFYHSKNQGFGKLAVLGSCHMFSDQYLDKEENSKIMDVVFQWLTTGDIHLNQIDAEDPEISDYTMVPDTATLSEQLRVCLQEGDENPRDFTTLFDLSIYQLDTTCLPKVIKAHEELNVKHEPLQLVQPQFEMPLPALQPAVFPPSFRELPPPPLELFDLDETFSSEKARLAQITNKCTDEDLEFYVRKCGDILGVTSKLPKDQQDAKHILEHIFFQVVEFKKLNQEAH
Description: co-IP; FLAG immunoprecipitation on mitotic shake-off of IMCD cells stably expressing FLAG-tagged IFT27, IFT52 or IFT46; western blot.

For test [3], the target named is T2, FLAG-tagged IFT27 (stably expressed in IMCD cells) (UniProt Q9D0P8).
T2 sequence: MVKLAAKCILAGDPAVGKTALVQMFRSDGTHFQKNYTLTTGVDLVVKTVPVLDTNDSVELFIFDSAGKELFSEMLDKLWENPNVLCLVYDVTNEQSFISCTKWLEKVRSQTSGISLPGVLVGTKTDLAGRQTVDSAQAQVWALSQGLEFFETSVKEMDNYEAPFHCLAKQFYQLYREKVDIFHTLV
Described as above.

In test [4] the target is T3, FLAG-tagged IFT46 (stably expressed in IMCD cells) (UniProt Q9DB07).
T3 sequence: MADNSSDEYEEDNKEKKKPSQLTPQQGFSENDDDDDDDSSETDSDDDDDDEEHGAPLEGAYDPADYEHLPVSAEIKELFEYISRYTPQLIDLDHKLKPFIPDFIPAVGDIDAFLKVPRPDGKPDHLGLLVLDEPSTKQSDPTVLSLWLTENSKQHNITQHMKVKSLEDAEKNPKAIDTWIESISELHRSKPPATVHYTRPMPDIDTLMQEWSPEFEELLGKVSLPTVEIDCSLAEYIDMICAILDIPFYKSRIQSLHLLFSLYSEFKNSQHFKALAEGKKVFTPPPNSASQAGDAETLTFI
The description is as above.

Test [5] concerns the target T4, Flag-IFT27 (pCMV14-IFT27-3xFlag, transfected in HeLa Kyoto) (UniProt Q9BW83).
T4 sequence: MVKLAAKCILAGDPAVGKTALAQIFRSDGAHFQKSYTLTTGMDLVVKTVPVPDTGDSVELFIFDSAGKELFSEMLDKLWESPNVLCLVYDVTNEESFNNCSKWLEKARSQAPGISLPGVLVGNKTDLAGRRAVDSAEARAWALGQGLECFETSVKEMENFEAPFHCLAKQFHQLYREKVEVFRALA
Description: co-IP; Flag M2 agarose immunoprecipitation, 2 h at 4 °C, mitotic HeLa Kyoto cells transfected with Flag-IFT27 and Myc-Aurora B; western blot.

Test [6] deals with T5, Lex-mMKLP2 N-term (aa 1-529) (mouse (from the name mMKLP2)) (UniProt P97329).
T5 sequence: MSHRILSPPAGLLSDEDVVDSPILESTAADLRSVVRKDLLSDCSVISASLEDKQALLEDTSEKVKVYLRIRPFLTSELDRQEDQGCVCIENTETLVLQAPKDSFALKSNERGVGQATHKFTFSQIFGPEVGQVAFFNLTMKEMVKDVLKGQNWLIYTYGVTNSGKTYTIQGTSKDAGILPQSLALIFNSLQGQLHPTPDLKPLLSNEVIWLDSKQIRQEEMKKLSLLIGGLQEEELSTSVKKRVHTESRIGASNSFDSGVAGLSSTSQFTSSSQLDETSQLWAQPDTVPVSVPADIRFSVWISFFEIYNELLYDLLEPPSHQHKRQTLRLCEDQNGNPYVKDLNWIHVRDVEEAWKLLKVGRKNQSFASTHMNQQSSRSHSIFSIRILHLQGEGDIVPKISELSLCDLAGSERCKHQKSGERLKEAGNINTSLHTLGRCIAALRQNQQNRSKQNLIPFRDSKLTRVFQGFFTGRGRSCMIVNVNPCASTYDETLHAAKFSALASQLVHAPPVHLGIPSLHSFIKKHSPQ
Description: two-hybrid; S. cerevisiae reporter strain L40, pGAD and pLex fusions, growth without Histidine.

The target in test [7] is T6, Lex-mMKLP2 M1-Q665 (aa 1-665) (mouse (from the name mMKLP2)) (UniProt P97329).
T6 sequence: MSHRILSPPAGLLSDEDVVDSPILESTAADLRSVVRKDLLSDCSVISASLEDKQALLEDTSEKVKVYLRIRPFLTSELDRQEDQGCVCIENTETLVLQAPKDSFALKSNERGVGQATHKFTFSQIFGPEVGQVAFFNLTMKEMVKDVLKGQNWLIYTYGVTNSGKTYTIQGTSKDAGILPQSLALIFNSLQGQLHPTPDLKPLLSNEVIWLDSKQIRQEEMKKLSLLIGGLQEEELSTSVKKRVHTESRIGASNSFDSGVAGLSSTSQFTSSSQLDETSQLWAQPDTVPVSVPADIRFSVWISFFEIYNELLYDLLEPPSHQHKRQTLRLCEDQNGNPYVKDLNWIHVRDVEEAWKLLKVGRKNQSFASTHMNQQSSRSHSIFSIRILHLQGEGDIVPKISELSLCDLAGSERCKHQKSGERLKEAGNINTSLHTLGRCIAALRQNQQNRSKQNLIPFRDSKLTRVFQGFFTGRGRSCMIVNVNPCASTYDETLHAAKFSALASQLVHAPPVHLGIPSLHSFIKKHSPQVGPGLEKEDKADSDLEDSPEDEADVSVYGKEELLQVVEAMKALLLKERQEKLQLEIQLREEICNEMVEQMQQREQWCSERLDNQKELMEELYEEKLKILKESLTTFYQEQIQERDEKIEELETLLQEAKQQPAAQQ
Described as above.

For test [8], the target named is T7, Lex-mMKLP2 C-term (aa 530-887) (mouse (from the name mMKLP2)) (UniProt P97329).
T7 sequence: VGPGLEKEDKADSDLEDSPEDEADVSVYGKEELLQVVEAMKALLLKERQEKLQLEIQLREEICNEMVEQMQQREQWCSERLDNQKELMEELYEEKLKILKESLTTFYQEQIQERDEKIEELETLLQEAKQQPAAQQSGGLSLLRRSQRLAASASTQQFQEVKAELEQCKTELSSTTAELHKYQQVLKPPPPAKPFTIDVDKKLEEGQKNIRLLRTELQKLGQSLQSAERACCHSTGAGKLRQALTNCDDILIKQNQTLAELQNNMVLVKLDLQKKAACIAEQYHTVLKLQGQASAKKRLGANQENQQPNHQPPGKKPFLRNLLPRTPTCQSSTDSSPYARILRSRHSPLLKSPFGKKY
The test is described as above.

No constants are given. Whether binding was seen depends on the method and setting. For part of these data: Binding seen in cells or lysates may run through a third protein. Some binding calls cover weakened binding; strength is not graded here. For part of these data: Tags and fused reporters may be left off the sequences shown.

On to “Aurora B (endogenous, HeLa Kyoto) (from UniProt Q96GD4 1-344) (enzyme)”, for which the binding result in test [1] is on record as “binds”.
On to “IFT140 (endogenous, IMCD cells) (from UniProt E9PY46 1-1464)”, for which the binding entry in test [2], in test [3] and in test [4] was “no binding” each time.
“Myc-Aurora B (transfected in HeLa Kyoto) (from UniProt Q96GD4 1-344) (enzyme)”: in test [5], the binding result is given as “binds”.

B1: IFT88 (endogenous, HeLa Kyoto) (protein, UniProt Q13099 1-824)
chain: MMQNVHLAPETDEDDLYSGYNDYNPIYDIEELENDAAFQQAVRTSHGRRPPITAKISSTAVTRPIATGYGSKTSLASSIGRPMTGAIQDGVTRPMTAVRAAGFTKAALRGSAFDPLSQSRGPASPLEAKKKDSPEEKIKQLEKEVNELVEESCIANSCGDLKLALEKAKDAGRKERVLVRQREQVTTPENINLDLTYSVLFNLASQYSVNEMYAEALNTYQVIVKNKMFSNAGILKMNMGNIYLKQRNYSKAIKFYRMALDQVPSVNKQMRIKIMQNIGVTFIQAGQYSDAINSYEHIMSMAPNLKAGYNLTICYFAIGDREKMKKAFQKLITVPLEIDEDKYISPSDDPHTNLVTEAIKNDHLRQMERERKAMAEKYIMTSAKLIAPVIETSFAAGYDWCVEVVKASQYVELANDLEINKAVTYLRQKDYNQAVEILKVLEKKDSRVKSAAATNLSALYYMGKDFAQASSYADIAVNSDRYNPAALTNKGNTVFANGDYEKAAEFYKEALRNDSSCTEALYNIGLTYEKLNRLDEALDCFLKLHAILRNSAEVLYQIANIYELMENPSQAIEWLMQVVSVIPTDPQVLSKLGELYDREGDKSQAFQYYYESYRYFPCNIEVIEWLGAYYIDTQFWEKAIQYFERASLIQPTQVKWQLMVASCFRRSGNYQKALDTYKDTHRKFPENVECLRFLVRLCTDLGLKDAQEYARKLKRLEKMKEIREQRIKSGRDGSGGSRGKREGSASGDSGQNYSASSKGERLSARLRALPGTNEPYESSSNKEIDASYVDPLGPQIERPKTAAKKRIDEDDFADEELGDDLLPE
For B1, the binding result in test [1] is listed as “binds”.

B2: GAD-IFT88 (pGAD-IFT88) (protein, UniProt Q13099 1-824)
chain: MMQNVHLAPETDEDDLYSGYNDYNPIYDIEELENDAAFQQAVRTSHGRRPPITAKISSTAVTRPIATGYGSKTSLASSIGRPMTGAIQDGVTRPMTAVRAAGFTKAALRGSAFDPLSQSRGPASPLEAKKKDSPEEKIKQLEKEVNELVEESCIANSCGDLKLALEKAKDAGRKERVLVRQREQVTTPENINLDLTYSVLFNLASQYSVNEMYAEALNTYQVIVKNKMFSNAGILKMNMGNIYLKQRNYSKAIKFYRMALDQVPSVNKQMRIKIMQNIGVTFIQAGQYSDAINSYEHIMSMAPNLKAGYNLTICYFAIGDREKMKKAFQKLITVPLEIDEDKYISPSDDPHTNLVTEAIKNDHLRQMERERKAMAEKYIMTSAKLIAPVIETSFAAGYDWCVEVVKASQYVELANDLEINKAVTYLRQKDYNQAVEILKVLEKKDSRVKSAAATNLSALYYMGKDFAQASSYADIAVNSDRYNPAALTNKGNTVFANGDYEKAAEFYKEALRNDSSCTEALYNIGLTYEKLNRLDEALDCFLKLHAILRNSAEVLYQIANIYELMENPSQAIEWLMQVVSVIPTDPQVLSKLGELYDREGDKSQAFQYYYESYRYFPCNIEVIEWLGAYYIDTQFWEKAIQYFERASLIQPTQVKWQLMVASCFRRSGNYQKALDTYKDTHRKFPENVECLRFLVRLCTDLGLKDAQEYARKLKRLEKMKEIREQRIKSGRDGSGGSRGKREGSASGDSGQNYSASSKGERLSARLRALPGTNEPYESSSNKEIDASYVDPLGPQIERPKTAAKKRIDEDDFADEELGDDLLPE
Consider B2, for which the binding entry in test [6] is on record as “no binding”; in test [7] it was “binds”; in test [8], “binds”.
